# Where no end group is shown, it is not given here.
# T1: murine TAP1/TAP2 complexes (Mus musculus, UniProt P21958+P36371)
# T1 construct: full-length cDNAs encoding the murine TAP transporters were amplified from plasmids pFM370.1 and pFM372.3; made in house; host or cells: Sf9 insect cells (baculovirus), used as microsomes
# T1 sequence (P21958 1-724): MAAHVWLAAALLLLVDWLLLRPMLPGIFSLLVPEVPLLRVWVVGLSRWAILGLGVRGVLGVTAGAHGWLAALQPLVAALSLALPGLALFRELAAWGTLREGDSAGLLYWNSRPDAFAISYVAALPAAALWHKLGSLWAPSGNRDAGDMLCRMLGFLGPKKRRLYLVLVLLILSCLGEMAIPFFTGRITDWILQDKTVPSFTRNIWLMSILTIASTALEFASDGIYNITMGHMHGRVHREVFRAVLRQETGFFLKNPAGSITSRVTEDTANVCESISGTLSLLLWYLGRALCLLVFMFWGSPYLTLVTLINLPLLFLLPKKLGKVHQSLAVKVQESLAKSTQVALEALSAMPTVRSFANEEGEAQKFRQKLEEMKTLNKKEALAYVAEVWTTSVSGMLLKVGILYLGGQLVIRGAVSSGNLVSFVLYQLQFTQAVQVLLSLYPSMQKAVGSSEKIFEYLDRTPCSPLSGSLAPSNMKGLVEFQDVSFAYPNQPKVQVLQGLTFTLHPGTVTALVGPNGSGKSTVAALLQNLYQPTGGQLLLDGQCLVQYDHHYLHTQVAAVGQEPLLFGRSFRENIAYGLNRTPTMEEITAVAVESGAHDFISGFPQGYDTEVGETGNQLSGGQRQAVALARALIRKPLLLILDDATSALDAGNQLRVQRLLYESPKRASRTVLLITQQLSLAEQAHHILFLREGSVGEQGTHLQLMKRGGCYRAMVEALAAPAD
# T1 sequence (P36371 1-702): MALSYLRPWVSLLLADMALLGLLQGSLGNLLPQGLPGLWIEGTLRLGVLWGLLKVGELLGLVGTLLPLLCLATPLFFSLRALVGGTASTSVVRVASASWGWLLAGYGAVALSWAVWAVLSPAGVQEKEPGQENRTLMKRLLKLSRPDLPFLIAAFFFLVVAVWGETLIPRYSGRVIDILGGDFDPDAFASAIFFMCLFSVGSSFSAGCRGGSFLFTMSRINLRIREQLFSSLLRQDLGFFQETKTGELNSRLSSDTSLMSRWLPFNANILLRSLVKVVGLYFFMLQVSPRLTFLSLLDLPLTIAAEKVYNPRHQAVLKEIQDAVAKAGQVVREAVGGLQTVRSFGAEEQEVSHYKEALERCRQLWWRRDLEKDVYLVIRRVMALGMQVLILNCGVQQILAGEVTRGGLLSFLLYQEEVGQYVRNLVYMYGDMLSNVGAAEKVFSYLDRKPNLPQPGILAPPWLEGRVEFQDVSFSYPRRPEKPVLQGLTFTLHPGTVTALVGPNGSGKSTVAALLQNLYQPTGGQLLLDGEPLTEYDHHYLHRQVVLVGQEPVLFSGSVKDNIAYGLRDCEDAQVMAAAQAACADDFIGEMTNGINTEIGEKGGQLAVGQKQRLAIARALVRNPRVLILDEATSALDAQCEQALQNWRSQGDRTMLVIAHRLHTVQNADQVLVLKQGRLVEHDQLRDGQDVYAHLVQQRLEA
# T2: murine TAP1/TAP2 complexes (mouse, UniProt P21958 1-724; P36371 1-702)
# T2 construct: also called mouse TAP complexes; murine TAP transporter
# T2 sequence (looked up) 1: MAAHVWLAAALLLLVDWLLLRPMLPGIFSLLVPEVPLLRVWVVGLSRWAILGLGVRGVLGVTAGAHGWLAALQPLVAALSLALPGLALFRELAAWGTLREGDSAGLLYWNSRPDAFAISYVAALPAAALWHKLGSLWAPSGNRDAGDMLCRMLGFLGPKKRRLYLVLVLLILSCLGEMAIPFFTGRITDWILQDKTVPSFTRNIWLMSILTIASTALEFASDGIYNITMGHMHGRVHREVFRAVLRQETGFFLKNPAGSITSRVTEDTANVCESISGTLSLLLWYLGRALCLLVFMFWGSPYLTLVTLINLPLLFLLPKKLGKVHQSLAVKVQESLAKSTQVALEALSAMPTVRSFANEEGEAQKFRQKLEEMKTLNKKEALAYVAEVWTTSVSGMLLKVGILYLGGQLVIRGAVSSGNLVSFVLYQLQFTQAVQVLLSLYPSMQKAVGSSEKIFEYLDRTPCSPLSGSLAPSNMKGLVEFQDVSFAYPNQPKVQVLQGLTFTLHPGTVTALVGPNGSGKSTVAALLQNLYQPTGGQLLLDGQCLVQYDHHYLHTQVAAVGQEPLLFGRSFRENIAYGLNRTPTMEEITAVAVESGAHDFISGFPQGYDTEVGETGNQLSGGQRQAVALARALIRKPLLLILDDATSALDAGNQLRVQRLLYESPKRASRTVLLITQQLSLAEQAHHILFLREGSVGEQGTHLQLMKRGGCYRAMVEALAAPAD
# T2 sequence (looked up) 2: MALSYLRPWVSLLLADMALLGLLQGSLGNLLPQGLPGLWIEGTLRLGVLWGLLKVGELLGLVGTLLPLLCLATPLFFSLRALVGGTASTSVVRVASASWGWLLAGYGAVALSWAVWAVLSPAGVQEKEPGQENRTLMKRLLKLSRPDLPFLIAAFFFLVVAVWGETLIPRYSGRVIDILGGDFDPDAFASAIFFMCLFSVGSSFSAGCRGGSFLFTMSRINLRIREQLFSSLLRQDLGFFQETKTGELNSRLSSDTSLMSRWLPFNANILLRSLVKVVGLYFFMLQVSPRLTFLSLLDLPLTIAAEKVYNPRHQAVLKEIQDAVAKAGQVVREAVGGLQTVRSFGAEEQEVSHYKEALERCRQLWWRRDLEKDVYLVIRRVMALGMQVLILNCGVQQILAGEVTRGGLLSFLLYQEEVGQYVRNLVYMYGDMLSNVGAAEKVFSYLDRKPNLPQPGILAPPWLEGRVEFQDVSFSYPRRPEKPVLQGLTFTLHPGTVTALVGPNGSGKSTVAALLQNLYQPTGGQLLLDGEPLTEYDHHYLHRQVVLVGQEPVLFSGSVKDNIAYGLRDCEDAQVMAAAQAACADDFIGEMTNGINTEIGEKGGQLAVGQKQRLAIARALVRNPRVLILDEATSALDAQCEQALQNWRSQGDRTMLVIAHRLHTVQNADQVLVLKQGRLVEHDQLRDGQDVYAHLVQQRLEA
# Assays:
# [1] = target: T1, murine TAP1/TAP2 complexes; format: binding; conditions: peptides removed from the dataset as outliers; very hydrophobic
# [2] = target: T2, murine TAP1/TAP2 complexes; test: radioligand binding; conditions: one partner purified
Molecule,competitive binding to murine TAP [1],Kd [2] [nM]
AFILGIIITV,relatively weak or no competitive binding,
ILMIFISSFL,relatively weak or no competitive binding,
LMYIFAAL,relatively weak or no competitive binding,
MIVAWFLLL,relatively weak or no competitive binding,
WAIINTIYF,relatively weak or no competitive binding,
"RRYNASTEL (also: 125I-labeled, site not given here, also called 125I-R9L) [125I-labeled reporter peptide R9L (RRYNASTEL)]",,400
